Out of some 310,000 compounds screened, about 14,000 (4.5%) showed an effect of 50% or more. The effect is printed as a negative number. The list shows a part of the results. Where a SMILES comes first, the peptide text is derived from it. The star is where a group is joined. Boc = CC(C)(C)OC(=O)*
molecular target: human ether-à-go-go-related gene (hERG) potassium channel (human, UniProt Q12809); assay: primary screen, population patch clamp on CHO cells stably expressing hERG
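Note: peak tail current of the secondary pulse compared with the same well before compound.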

Chain of human ether-à-go-go-related gene (hERG) potassium channel (Q12809 whole entry, looked up): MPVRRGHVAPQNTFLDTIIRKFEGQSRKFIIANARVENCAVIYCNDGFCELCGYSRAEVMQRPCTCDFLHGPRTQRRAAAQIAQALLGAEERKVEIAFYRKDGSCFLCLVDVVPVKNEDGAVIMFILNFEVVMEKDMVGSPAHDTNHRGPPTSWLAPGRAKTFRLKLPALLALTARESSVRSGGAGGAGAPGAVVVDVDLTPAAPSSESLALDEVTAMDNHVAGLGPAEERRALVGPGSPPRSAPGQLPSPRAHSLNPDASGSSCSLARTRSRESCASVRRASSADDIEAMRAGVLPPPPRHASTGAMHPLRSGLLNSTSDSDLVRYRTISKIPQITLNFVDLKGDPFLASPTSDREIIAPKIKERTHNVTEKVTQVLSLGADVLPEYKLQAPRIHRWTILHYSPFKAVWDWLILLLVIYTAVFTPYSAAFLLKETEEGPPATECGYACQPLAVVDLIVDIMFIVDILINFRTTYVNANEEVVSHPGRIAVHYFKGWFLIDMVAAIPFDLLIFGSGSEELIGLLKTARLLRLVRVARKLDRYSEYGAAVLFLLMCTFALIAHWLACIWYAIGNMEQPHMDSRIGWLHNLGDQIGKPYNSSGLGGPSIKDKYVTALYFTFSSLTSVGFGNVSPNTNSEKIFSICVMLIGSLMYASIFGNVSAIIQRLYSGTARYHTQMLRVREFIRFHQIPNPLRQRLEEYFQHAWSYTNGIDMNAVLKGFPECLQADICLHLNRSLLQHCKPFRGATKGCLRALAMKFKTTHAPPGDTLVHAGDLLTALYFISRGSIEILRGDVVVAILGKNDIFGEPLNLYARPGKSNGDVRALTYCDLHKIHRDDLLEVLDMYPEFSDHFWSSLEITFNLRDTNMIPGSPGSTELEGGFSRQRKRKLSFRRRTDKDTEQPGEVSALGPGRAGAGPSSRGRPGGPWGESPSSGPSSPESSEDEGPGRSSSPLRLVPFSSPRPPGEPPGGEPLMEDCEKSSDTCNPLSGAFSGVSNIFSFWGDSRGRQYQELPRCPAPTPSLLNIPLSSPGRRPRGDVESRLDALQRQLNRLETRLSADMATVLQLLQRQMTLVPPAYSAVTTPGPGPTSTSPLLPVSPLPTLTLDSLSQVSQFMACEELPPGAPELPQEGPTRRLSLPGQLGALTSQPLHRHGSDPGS

Row | Compound | hERG current change (%, negative = inhibition) at 10uM [%]
1 | CCc1nnc(NS(=O)(=O)c2ccc(Nc3ccc4nonc4c3[N+](=O)[O-])cc2)s1 | 2.96
2 | O=C(NCc1ccco1)/C(=C\c1ccccc1)NC(=O)c1ccccc1 | 6.85
3 | COCCN1C(=O)c2oc3ccccc3c(=O)c2C1c1cccc(O)c1 (centres unmarked) | 4.66
4 | Cl.O=C(c1cccc(S(=O)(=O)NCc2ccccc2)c1)N1CCN(Cc2ccccc2)CC1 | -34.8
5 | O=C(CSCc1ccc(Cl)cc1)NCc1ccccn1 | 8.42
6 | COc1ccc(CCNC(=O)c2c(O)c3cccc4c3n(c2=O)CC4)cc1 | 6.47
7 | Cc1ccc(C)c(SCC(=O)OCC(=O)Nc2ccc(S(=O)(=O)N3CCOCC3)cc2)c1 | 3.65
8 | O=C(O)c1cccc2c1C(=O)N(C1CCCCC1)C2 | -24.3
9 | O=C(NCc1ccccc1CN1CCCC1)C1CCN(S(=O)(=O)c2ccc(Cl)cc2)CC1 | -69.4
10 | O=C(C1CCCN(S(=O)(=O)c2cccs2)C1)N1CCN(C2CCCCC2)CC1 (centres unmarked) | -24.6
11 | CCCCCCOC(=O)NCC(O)c1ccccc1 (centres unmarked) | -8.23
12 | O=S1(=O)N=C(N/N=C/C=C/c2ccccc2)c2ccccc21 | 2.08
13 | Cc1occc1C(=O)NNC(=O)CN1C(=O)NC(C)(c2ccccc2)C1=O (centres unmarked) | 19.1
14 | CCc1nc(NCc2ccccn2)c2oc3ccccc3c2n1.Cl | -9.37
15 | Cl.O=C(COc1ccccc1)N1CCN(CC(O)COc2ccccc2)CC1 (centres unmarked) | -50.8
16 | Cc1c(C)n2c3c(cccc13)CC2 | -0.781
17 | CCOC(=O)C1CCN(Cc2ccc(Cl)nc2)CC1 | 1.35
18 | CC(C(=O)Nc1ccccc1)N(C)Cc1cccs1 (centres unmarked) | 8.67
19 | OC(CNC1Cc2ccccc2C1)COc1ccc(Cl)cc1 (centres unmarked) | -68.8

Row | Compound | hERG current change (%, negative = inhibition) at 10uM [%]
20 | Cc1ccc(NC(=S)c2ccccc2)cc1 | 16.4
21 | COC(=O)c1ccc(C(C2C(=O)CC(C)(C)CC2=O)C2C(=O)CC(C)(C)CC2=O)cc1 | 16.9
22 | NNC(=O)c1ccc(N2CCCCCC2)c([N+](=O)[O-])c1 | -9.73
23 | CCC(=O)Nc1nonc1-c1nc2ccccc2n1Cc1ccccc1 | 10.3
24 | CC(NC(=O)C(NC(=O)C1CCCN1C(=O)OC(C)(C)C)C(C)C)C(N)=O (stereo not drawn) (Boc-Pro-Val-Ala-NH2; configuration not given here) | -7.45
25 | Cn1cc(C(=O)N/N=C/C=C/c2ccccc2)ccc1=O | -12.8
26 | Cc1ccc(C)c(COC(=O)c2cc(S(=O)(=O)N3CCCCC3)ccc2N2CCOCC2)c1 | -6.53
27 | Cc1ccc(C)c(NC(=O)CCN2CCCCC2)c1 | 12.6
28 | O=C(O)c1ccccc1Oc1ccc(Oc2ccccc2)cc1 | 15.7
29 | NNC(=O)c1cccc(COc2ccc3c(c2)CCC3)c1 | -0.713
30 | O=C1NC(=O)N(c2ccccc2)C(=O)/C1=C/c1ccc(Sc2ccccc2)o1 | 18.6
31 | Cc1cc(Cl)ccc1OCC(=O)N1CCN(c2ncccn2)CC1 | -12
32 | CN(C)CCCNC(=O)c1cc2sc3ccccc3c2s1.Cl | -64.7
33 | COc1ccccc1CNC(=O)CSc1ccc(-c2ccncc2)nn1 | -25.1
34 | Cc1ccc(CC(CC(=O)O)C(=O)NC2CCCCC2)cc1 (centres unmarked) | -8.44
35 | CCOC(=O)CN1N=C(/C=C/c2ccc(C)cc2)CCC1=O | 17.5
36 | O=C(C1=C(O)C(=O)N(c2ncccn2)C1c1ccc(Cl)c(Cl)c1)c1ccco1 (centres unmarked) | 3.56
37 | COC(=O)C1C(=O)c2c([nH]c(C(=O)OC3CCCCC3)c2C)CC1C (centres unmarked) | -0.668
38 | O=C(O)c1ccc2c(c1)C(=O)N(c1cc([N+](=O)[O-])ccn1)C2=O | 21.5

Row | Compound | hERG current change (%, negative = inhibition) at 10uM [%]
39 | O=C(Cn1c(=O)oc2ccccc21)N(Cc1ccccc1)C1CCS(=O)(=O)C1 (centres unmarked) | -9.83
40 | c1ccc(CCc2nn3c(Cn4nnc5ccccc54)nnc3s2)cc1 | -23.5
41 | COCCN1C(=O)N[C@@H](c2cccs2)C(C(=O)OC)=C1C | 16.2
42 | O=C(c1ccc(-c2cccc(C(F)(F)F)c2)o1)N1CCN(c2ccccc2O)CC1 | 17.1
43 | CCN(CC(=O)Nc1cc(Cl)ccc1C)C(=O)COc1ccccc1F | 9.58
44 | Cc1ccccc1C(=O)N1CCC(C(=O)N2CCCc3ccccc32)CC1 | -1.08
45 | Cc1cccc(-n2nc([N+](=O)[O-])c(=NC3CCN(Cc4ccccc4)CC3)n2O)c1 | -66.8
46 | O=c1c2cn[nH]c2nc(SCc2ccc3c(c2)OCCO3)n1-c1ccccc1 | 2.13
47 | CC(=O)Oc1cccc(/C=c2\sc3nc(-c4ccco4)nn3c2=O)c1 | 3.41
48 | Cc1n[nH]c(=O)nc1NCc1ccc(Cl)cc1 | 4.1
49 | CC1=NN(c2ccc(S(=O)(=O)O)cc2Cl)C(=O)C1 | 27.8
50 | O=C1C2(c3ccccc3)CN(CCCO)CC1(c1ccccc1)CN(CCCO)C2 | -50.4
51 | O=C(CSc1ccc2c(c1)OCCO2)Nc1ccc(Cl)cn1 | 24.3
52 | Cc1cc(C)c(C)c(S(=O)(=O)N2CCSCC2)c1C | 14.5
53 | O=C(Nc1cccc(F)c1)c1ccc(S(=O)(=O)N2CCCCC2)cc1 | 11.9
54 | O=C(C1CCCN(S(=O)(=O)Cc2ccccc2)C1)N1CCCCC1 (centres unmarked) | -5.95
55 | O=C(NNC(=O)C1CCN(Cc2ccccc2)CC1)c1cccc(Cl)c1 | -14
56 | Cc1cc(S(=O)(=O)N2CCOCC2)ccc1OCC(=O)Nc1cccc(C(F)(F)F)c1 | 19.8

Reference: article PMC4336329 (PLoS ONE, 2015)
